{"source": "the supplement of paper PMC12632987", "binders": {"B1": {"name": "LC3A_17_565 (protein)", "chain": "MEELRKEIEELIKELEELIKILAKEDPEAAKKVKELLEKAKKLLEEGDLRGAAEELEKAFRLAADRFEELSEKTNGKYANEEMLANGLELEAIGIIEKLE"}, "B2": {"name": "LC3A_3_1704 (protein)", "chain": "MEELLKEAEEILKKHGKSEETIKAALEALKALLERGYEEAAKELLELLKEAGDLSDEILLWFFEEVKEVVERPDLTEEEVIEEIKRLWQIAKNDQEIEEL"}, "B3": {"name": "LC3A_free_46_2336 (protein)", "chain": "YEVDVDIALRAAPREEIEETVERIKERFEEIAKKHNAEIEIDVEYYENEDGTWIAFIDIDITTEDKETAEKVAQEVSDAIDEIDEETGLVGMFSIEISEE"}, "B4": {"name": "LC3A_28_1182 (protein)", "chain": "SALEKALKAALAKAKEAAAKGEATVITITVPGTANEEDIKRVIKTMEEIAEILKDIPGSAIIIDLVGGVKEEHQKRLAEKAEEIEKKYPNITVIIALDDE"}, "B5": {"name": "LC3A_free_46_2311 (protein)", "chain": "VKAEITIDLLHDDEEVLKKAVEEIVKAIKEIAKEYGLEVEIEVSFSKDPDGSHFAEINITLKGETKEKLEAAVNKIIDEIDKIAEKYDVSYIISVEIEEE"}, "B6": {"name": "LC3A_free_39_2272 (protein)", "chain": "SEEEVEEIVEELEELLAENPEVSEEVREELLEIARENPEVGRVLAEHMRQALEEGRDVAALAEAAVKTYKELKAAGKSEEEITEEVDLVAAEHVNLIPLD"}, "B7": {"name": "LC3A_28_903 (protein)", "chain": "SPALESAEKALKEVKKAVAAGNQEPLVLEVKAPSTQEDVDKLLKLLEEIAEEASKLKGVSIIIDIDESVSQENRDRIIDKAEELEEKYPNVTIIIALPES"}, "B8": {"name": "LC3A_3_1484 (protein)", "chain": "MEEVIKETEEALKKAGKSEETIKAAREFLERLKEAGLEEAAKEMAEVIKEALDRPSDDLLKVLQAALAELKAIPNPTEEDAKEIVKETKLAFEIEELEEE"}, "B9": {"name": "LC3A_28_1180 (protein)", "chain": "SELEKSIEEALKEAEKAKKAGEPTVITINVPGDVTEEETERVIEAMEKIAELLKDIPGSAIVINVDSGVSQEHLDRILEKAEEIEKKYPNVTVIIALDEE"}, "B10": {"name": "LC3A_3_1460 (protein)", "chain": "AEELIKEAREILKKQGASEETIKAAEELLKELAKKGYLEAMKTVVELLKEMKGVSSEILLETFKELLEIVKTEDLSEEEIIKKIKEEFAAAKSENEIIEL"}, "B11": {"name": "LC3A_3_1477 (protein)", "chain": "MEKEKEEAIKLLKEAGWSEETIKAFQEALDKLKELGFEEAAKTLIKQAKKLADLPDELALDFFKEVLAAIDELKDDEEALIKEIESIAAATLSEGEIIEL"}, "B12": {"name": "LC3A_45_1936 (protein)", "chain": "MYKATIDVLVPKELAEKAYNLIKEEGKELEKEYGDRIKVDFEKLEKSYEETKNEEDVYLELEIYADDEQLALDAAVRIVDRLEEELNGKAAAIISVEKLP"}, "B13": {"name": "LC3A_free_39_2242 (protein)", "chain": "SEEEEEEAKKEILELAKEEGEEAKKLAEKLLKILEGYPEAVKELLKLLKELKKEGGDVLEALRRALEVAERLQAEGKSQEEIAKAIIEELKDELNLIPLD"}, "B14": {"name": "LC3A_free_39_2276 (protein)", "chain": "SAAERAAALAAAEALAASLSPEGAALLRRLLARFADDPEAVRRIVAALERAREEGADMLEILRRALAVVDAGEAAGLSREEIAERVLAEIEDLINLQPLD"}, "B15": {"name": "LC3A_3_1384 (protein)", "chain": "AEERIERTLERLREAGHSEETIEAARRAAEALLEKGYEEALETFLELVEELIHLPDEQLLALFAEVLELIETEDLDEETLTERIKEIATVFKNESEIIEL"}, "B16": {"name": "LC3A_147_510 (protein)", "chain": "YLVEIDVDLLVKNAVEEVKKRFKEIVEKLKKKGYKVELEIKEEKIDENTYYVEVTIKIYAETKEEAEKAANETLSLLDEMLEELKDEILGSLISVDIEET"}, "B17": {"name": "LC3A_127_177 (protein)", "chain": "EVEELLKRVIELAERLSKLLQDPNATLEELLKQAEELLKAAEELLKLDPRAEPVLEDAKELVKLLKQAKTADAATREQLLEQAELLVEGILVDAELLLLR"}, "B18": {"name": "LC3A_3_1706 (protein)", "chain": "MEELLKEAREILEKHGKSEETIEAALEALKALLEKGYEEAAKTLLELLKESEDLSDEILLWFFEEVKKVVEDPSLNEEEVIEKIKELYQIAKNEQEIEEL"}, "B19": {"name": "LC3A_3_1365 (protein)", "chain": "MEEEIEELLKYLKSKGKSEETLKAVRETLEALIEKGYYEAARTFIELMRELSHLPDELLLDLAEEVLEKVKTEDLSEEELIEYIKSLARIALNEAEIEEL"}}, "note": "The full ranking holds about 2,300 sequences; the median of “median log2 fold change of GCK-ALFA target abundance (FLAG IP / Myc IP barcode read proportion)” is about 0.095, and the lowest 2% start at about -0.47. This is one part of the list."}
{"molecular_target": "MAP1LC3A, Q9H492", "test": "median log2 fold change of GCK-ALFA target abundance (FLAG IP / Myc IP barcode read proportion) (log2 ratio); each designed protein is fused to an ALFA-tag nanobody in HEK293 cells to bring the named protein to FLAG-tagged glucokinase (GCK); Myc marks an untargeted standard; higher = target protein stabilised (more abundant)", "details": "target protein: 3xFLAG-MCP-GCK-ALFA reporter; HEK293 landing pad (RPLP)", "in_short": "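Binders fused to an ALFA nanobody were recombined as a library into HEK293 landing-pad cells, which were induced with 2 μg mL^−1 doxycycline and then transfected to express a FLAG-tagged target and a Myc-tagged standard. After 48 h, circular RNA barcodes recovered by anti-FLAG and anti-Myc immunoprecipitation of lysates were reverse transcribed, amplified and sequenced. Each binder's target abundance is the median log2 ratio of FLAG to Myc barcode read proportions, from barcodes present at ≥10^−7 in both replicates, binders carrying ≥3 barcodes per replicate, a 10^−6 pseudocount and pooled replicates.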"}
{"binder": "B1", "median log2 fold change": 0.105}
{"binder": "B2", "median log2 fold change": 0.397}
{"binder": "B3", "median log2 fold change": -0.113}
{"binder": "B4", "median log2 fold change": 0.104}
{"binder": "B5", "median log2 fold change": 0.0722}
{"binder": "B6", "median log2 fold change": 0.253}
{"binder": "B7", "median log2 fold change": -0.303}
{"binder": "B8", "median log2 fold change": 0.231}
{"binder": "B9", "median log2 fold change": -0.0876}
{"binder": "B10", "median log2 fold change": 0.182}
{"binder": "B11", "median log2 fold change": 0.203}
{"binder": "B12", "median log2 fold change": -0.132}
{"binder": "B13", "median log2 fold change": 0.2}
{"binder": "B14", "median log2 fold change": 0.252}
{"binder": "B15", "median log2 fold change": 0.205}
{"binder": "B16", "median log2 fold change": -0.119}
{"binder": "B17", "median log2 fold change": 0.149}
{"binder": "B18", "median log2 fold change": 0.47}
{"binder": "B19", "median log2 fold change": 0.265}
